This passage reports survival results from PubChem BioAssay AID463173 (ICCB-Longwood Screening Facility, Harvard Medical School, 2010).

The campaign covered roughly 52,000 compounds. About 4,300 (8.3%) were called active. Rule as the data show it: active = survival mostly below about 52% (no sharp cut-off); inactive = mostly above about 56%. The list shows a part of the results.

In the assay the test system is DeltatarO mutant. Briefly: S. aureus survival, RN4220 and DeltatarO strains – OD600, teichoic acid synthesis inhibitors, primary screen (AID 463173). Particulars: S. aureus RN4220 wild type/DeltatarO growth, OD600, 18 h, active compounds read low, screened at 18.75 µg/mL (by protocol).
As for `COc1ccccc1-c1nc2c(c(SCC(=O)Nc3ccc(C)c(C)c3)n1)Cc1c(CO)cnc(C)c1O2`, the survival is inactive: 61%.
Turning to `Cc1ccc(NC(=O)c2cccc3c2C(=O)N(C2CCCCC2)C3)c(C)c1`, the survival was inactive: 116%.
Under `COc1ccc(N(CC(=O)Nc2cccc(Cl)c2C)S(=O)(=O)c2c(C)nn(C)c2C)cc1` stands inactive: 62%.
In the case of `COc1ccc(C2=C(C)C(=NCCCN3CCN(c4cc(C)ccc4C)CC3)NS2(=O)=O)cc1`, the survival is inactive: 87%.
To `Cc1ccc(S(=O)(=O)CC(=O)Nc2sc3c(c2C#N)CCCC3)cc1` belongs inactive: 119%; to `CCn1cc(CCC(=O)NCc2ccccc2OC)c2ccccc21`, inactive: 66%.
To `Cc1ccc(CSCC(=O)N2CCN(c3ccccc3F)CC2)cc1` belongs inactive: 63%.
To `CCOC(=O)Cn1c(=O)n(C2CCCCC2)c2nc(-c3cccc(F)c3)nc(C(N)=O)c21` belongs inactive: 83%; to `CC1=C(C(=O)Nc2ccccc2)C(c2cccnc2)n2nc(SCc3ccccc3Cl)nc2N1` (configuration not stated), inactive: 179%; to `Cc1ccc(S(=O)(=O)c2cc3cc(C(=O)O)ccc3oc2=O)cc1`, inactive: 120%.
With `O=C(Nc1ccc(Cl)cc1)N1CCC(c2nc(-c3ccc(F)cc3)no2)CC1`, the survival was inactive: 54%.
Under `CC(=O)NS(=O)(=O)c1ccc(N=NN2CCCCC2)cc1` stands inactive: 105%; under `CCCCCOc1c(Cl)cc(C(=O)N(Cc2ccc(C)o2)C2CCS(=O)(=O)C2)cc1Cl` (configuration not stated), inactive: 71%.
To `COc1ccc(C)c2sc(N(Cc3cccnc3)C(=O)C3CCCCC3)nc12` belongs inactive: 83%.
With `CCCN(CCC)CCCNC(=O)C1CCN(S(=O)(=O)CC)CC1`, the survival was inactive: 109%.
To `CCOC(=O)c1ccc(N2C(=O)c3n[nH]c(-c4ccco4)c3C2c2ccc(O)cc2)cc1` (configuration not stated) belongs inactive: 40%; to `COc1ccc(C)cc1NC(=O)c1c(C)oc2ncn(CC(C)C)c(=O)c12`, inactive: 79%; to `CCCn1cc(S(=O)(=O)c2ccccc2)c(=O)c2cc(F)c(N3CCCC(C)C3)cc21` (configuration not stated), inactive: 81%.
To `O=c1[nH]nc(SCc2cccc3ccccc23)c(=O)[nH]1` belongs inactive: 94%; to `Cc1cc2c(cc(C(=O)OC(C(=O)NC3CCCC3)c3ccccc3F)n2C)o1` (configuration not stated), inactive: 98%.
To `CCOc1ccc(NC(=O)c2nn(C)c3c2CS(=O)(=O)c2ccccc2-3)cc1` belongs inactive: 60%.
Regarding `CCOc1ccccc1NC(=O)Cn1c(=O)n(-c2ccc(F)cc2)c(=O)c2sc3ccccc3c21`, the survival was inactive: 82%.
Under `COc1ccc(CCNC(=O)CCCn2c(=O)c3ccccc3n(CC(=O)Nc3cc(Cl)ccc3C)c2=O)cc1OC` stands inactive: 69%; under `CCOC(=O)c1c(NC(=O)COc2cc(C)ccc2C(C)C)sc(C)c1C`, inactive: 63%.
Under `CCOc1cccc(C(c2c(C)n(C)n(-c3ccccc3)c2=O)c2c(C)n(C)n(-c3ccccc3)c2=O)c1OC` stands inactive: 83%.
In the case of `CCOCCCNC(=O)C(Cc1ccccc1)NS(=O)(=O)c1ccc2c(c1)c(=O)n(C)c(=O)n2C` (configuration not stated), the survival is inactive: 88%.
As for `CCC/C(O)=C1\C(=O)CC(C)(C)CC1=Nc1ccccc1OC`, the survival is inactive: 74%.
Under `COc1ccc(Cl)cc1-n1c(/C=C/c2cccc3ccccc23)nc2ccccc2c1=O` stands inactive: 75%; under `CC1CCN(S(=O)(=O)c2ccc(S(=O)(=O)N3CCCN(Cc4ccccc4)C3)cc2)CC1`, inactive: 106%.
To `COc1ccc(-c2nc(CSc3nncn4c3cc3occc34)c(C)o2)cc1` belongs inactive: 96%; to `O=C(Nc1ccc2c(c1)OCO2)c1ccccc1`, inactive: 85%.
For `O=C(Nc1cccc(OCc2cc(=O)n3c4c(sc3n2)CCCC4)c1)c1ccc(F)cc1`, the survival is inactive: 111%.
Under `Cc1ccccc1-c1noc(CCC(=O)Nc2cccc(C)c2C)n1` stands inactive: 88%; under `Cc1ccc2nc(-c3cc(NC(=O)/C=C/c4ccccc4)ccc3Cl)oc2c1`, inactive: 68%.
With `COc1ccc(C(=O)Nc2ccc3nc(N4CCC(C)CC4)cc(C)c3c2)cc1`, the survival is inactive: 56%.
Under `COc1cc(Cl)c(C)cc1NC(=O)c1cn(C2CCCC2)c(=O)c2c1c1ccccc1n2C` stands inactive: 109%; under `O=C(c1cccc(Cl)c1)N1CCN(CCc2ccncc2)CC1`, inactive: 81%.
To `CCOc1ccc(-c2nnc(SCC(=O)NCCc3ccc(OC)c(OC)c3)nc2-c2ccc(OCC)cc2)cc1` belongs inactive: 98%; to `CCC(=O)N1CCN(c2ccc(NC(=O)COc3ccccc3)cc2)CC1`, inactive: 76%; to `Cc1ccc(S(=O)(=O)NCc2ccc(/C=C(/C#N)C(=O)NCc3ccccc3)o2)cc1`, inactive: 69%.
Under `CN(Cc1ccccc1)C(=O)CSc1nc2ccsc2c(=O)n1-c1ccc(F)cc1` stands inactive: 109%.
`COc1cccc(NS(=O)(=O)c2ccc3[nH]cc(C(=O)NCCc4ccccc4)c(=O)c3c2)c1`: the survival was inactive: 83%.
In the case of `Cc1ccc2oc(=O)c3cnn(CC(=O)N4CCN(c5cc(Cl)ccc5C)CC4)c3c2c1`, the survival was inactive: 77%.
In the case of `COc1cccc(CNc2nc3c(-c4ccccc4)nnn3c3ccccc23)c1`, the survival was inactive: 84%.
Under `CCOc1ccc(NC(=O)c2cc(S(=O)(=O)N3CCCCC3)c[nH]2)cc1` stands inactive: 107%; under `CCC(=O)N1CCc2cc(Br)cc(S(=O)(=O)CCC(=O)Nc3ccc(C)c(C)c3)c21`, inactive: 55%; under `COc1ccc(-c2noc(-c3ccc(NCc4cccnc4)c([N+](=O)[O-])c3)n2)cc1`, inactive: 56%.
To `O=C(NCc1ccccc1Cl)c1cnc2sc(N3CCOCC3)nn2c1=O` belongs inactive: 71%; to `COc1ccc(NC(=O)CCc2nnc3n(C)c(=O)c4sccc4n23)cc1Cl`, inactive: 78%.
`CCn1cc(C(=O)NCCCN(CC(C)C)CC(C)C)c(=O)c2cc(S(=O)(=O)N(C)C3CCCCC3)ccc21`: the survival is inactive: 85%.
To `COc1cccc(N2C(=O)N(Cc3ccc(C#N)cc3)c3ccccc3S2(=O)=O)c1` belongs inactive: 89%.
Under `O=S(=O)(c1ccccc1F)N1CCC(Oc2ccc(-n3cnnn3)cc2)CC1` stands inactive: 72%; under `CCc1ccccc1NC(=O)Cn1c(=O)n(CC2CCC(C(=O)NCCc3ccccc3)CC2)c(=O)c2ccccc21` (configuration not stated), inactive: 78%.
To `CCS(=O)(=O)N1CCC(n2c(C)nc3cccnc32)CC1` belongs inactive: 75%; to `Cc1ccc(Cl)c(NC(=O)Nc2csc3c2CCCC3)c1`, inactive: 77%.
With `CN1C(=O)c2ccccc2Sc2ccc(NC(=O)COc3ccccc3)cc21`, the survival is inactive: 75%.
In the case of `Cc1ccccc1OCc1nnc(SCC(=O)N(C)C)n1-c1ccccc1`, the survival is inactive: 93%.
For `COc1cc2oc(=O)c(CC(=O)N3CCCCC3)c(C)c2cc1OC`, the survival is inactive: 51%.
Under `COc1ccc(C2=NS(=O)(=O)N(C)C(C(=O)NCc3ccccc3)=C2)cc1OC` stands inactive: 100%.
Under `COc1ccc(-c2cc(C(=O)Nc3ccn(Cc4ccc(C)cc4)n3)no2)cc1OC` stands inactive: 57%; under `CCc1ccc(NC(=O)C(=O)NCC(c2ccc3c(c2)OCO3)N2CCOCC2)cc1` (configuration not stated), inactive: 83%.
In the case of `Cc1ccc(S(=O)(=O)c2nc(-c3ccccc3Cl)oc2N2CCCCCC2)cc1`, the survival was active: 25%.
With `Cc1ccc(C)c(CSc2cn(CC(=O)N3CCCCCC3)c3ccccc23)c1`, the survival was inactive: 86%.
Under `COc1ccc(NC(=O)CCCc2nnc3n(CCC(C)C)c(=O)c4sccc4n23)c(OC)c1` stands inactive: 95%; under `COc1ccc(-c2csc3nc(-c4ccc(F)cc4)oc(=O)c23)cc1`, inactive: 61%.
Under `COc1ccc(C(=O)/C=C/c2cn(CC(O)CN(CC(C)C)CC(C)C)c3ccccc23)cc1` (configuration not stated) stands inactive: 58%; under `CCOC(=O)c1nc(N2CCN(c3ccc(F)cc3)CC2)c2c(C)noc2n1`, inactive: 55%; under `CCn1c(=O)n(-c2ccc(F)c(Cl)c2)c(=O)c2c3c(sc21)CN(C(C)=O)CC3`, inactive: 129%.
To `COc1cccc(C(=O)Nc2ccc(-c3nc4ccccc4s3)cc2Cl)c1` belongs inactive: 72%; to `Cc1cc(C)cc(-n2ccnc2SCC(=O)Nc2nc3ccccc3s2)c1`, inactive: 71%; to `COc1ccc(-c2nc3sc(CCNC(=O)c4cccc(C(F)(F)F)c4)c(C)n3n2)cc1`, inactive: 75%.
For the molecule `CCOc1ccc(C2c3[nH]c4ccccc4c3CCN2C(=O)Cc2cccc(OCC)c2OCC)cc1` (configuration not stated), the survival is inactive: 125%.
To `Cc1ccccc1Cn1nnc2c(=O)[nH]c(C3CCN(C(=O)c4ccccc4)CC3)nc21` belongs active: 17%.
To `CCOC(=O)c1cnc2ccc(C(=O)OC)cc2c1Nc1ccccc1CC` belongs active: -3%; to `CSc1ncc(C(=O)NCc2ccccc2)c(-c2ccccc2)n1`, active: 37%; to `COc1ccc(NC(=O)C2CCCN2S(=O)(=O)c2cccc3cccnc23)cc1OC` (configuration not stated), inactive: 87%.
To `CC(C)(C)n1cnc2cc(NCc3ccccc3Cl)ccc21` belongs active: 7%.
In the case of `CC(C)Oc1ccc(CNC(=O)c2ccc(NC(=O)N3CCSc4ncccc43)cc2)cc1`, the survival is active: 6%.
Under `CCC(C(=O)NCc1ccccc1OC)n1nc(C)n2c(cc3sccc32)c1=O` (configuration not stated) stands inactive: 82%; under `Cc1[nH]c2ccc(S(N)(=O)=O)cc2c1C`, inactive: 88%.
Under `Cc1n[nH]c(C)c1S(=O)(=O)N1CCCC(C(=O)Nc2ccc(Cl)cc2)C1` (configuration not stated) stands inactive: 131%.
To `Cc1ccc(C)c(N2CCN(C(=O)Cn3c(-c4cccs4)cc4ccccc43)CC2)c1` belongs inactive: 71%; to `CCN(C(=O)Cn1cc(S(=O)(=O)Cc2ccccc2Cl)c2ccccc21)c1ccccc1`, inactive: 69%; to `Cc1ccc(N2CCN(C(=O)c3c4c(nc5ccccc35)C(=O)N(C3CCCCC3)C4)CC2)c(C)c1`, inactive: 69%.
As for `COc1ccc(C(=O)Nc2nc3c(s2)CCc2cc(OC)ccc2-3)cc1`, the survival was active: 35%.
To `COCCCn1c(SCC(=O)NCc2ccccc2)nc2c(sc3ccccc32)c1=O` belongs inactive: 82%; to `CN(C)c1ccc(CNC(=O)C2CCN(S(=O)(=O)c3ccc4c(ccn4C)c3)CC2)cc1`, inactive: 95%.
